Assay results: the supplement of paper PMC3334620
The full ranking holds about 33,000 sequences; the median of “E-score (-0.5 to 0.5)” is about -0.035, and the highest 2% start at about 0.34. The list shows a part of the results.

What follows are sequences tested against T1, Mot3 (UniProt P54785) (assay: PBM E-score (8-mer binding enrichment) (E-score (-0.5 to 0.5)); higher = stronger / more preferred TF binding; most listed sequences are background and not binding sites). Settings: protein concentration: 200 nM; construct: GST-full length.
T1 sequence: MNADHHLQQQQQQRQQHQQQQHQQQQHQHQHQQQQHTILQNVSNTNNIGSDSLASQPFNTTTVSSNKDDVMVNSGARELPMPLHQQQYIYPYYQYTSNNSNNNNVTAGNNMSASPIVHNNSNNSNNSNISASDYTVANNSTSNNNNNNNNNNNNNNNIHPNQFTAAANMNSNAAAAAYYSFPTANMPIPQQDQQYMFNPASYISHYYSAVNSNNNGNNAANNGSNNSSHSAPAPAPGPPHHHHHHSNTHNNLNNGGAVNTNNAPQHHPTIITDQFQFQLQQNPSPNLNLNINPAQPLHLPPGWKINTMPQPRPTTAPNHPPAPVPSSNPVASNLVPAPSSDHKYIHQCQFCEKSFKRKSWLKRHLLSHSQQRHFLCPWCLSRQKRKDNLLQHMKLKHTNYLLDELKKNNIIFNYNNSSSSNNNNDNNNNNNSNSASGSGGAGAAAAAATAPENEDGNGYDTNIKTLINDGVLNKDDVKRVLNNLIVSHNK
In short: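 Bound GST-tagged yeast transcription factors, applied at about 100-200 nM to double-stranded universal all-10-mer Agilent arrays, were detected with fluorescent anti-GST. Scans were normalised with masliner. A modified Wilcoxon-Mann-Whitney statistic, the E-score, was assigned to each ungapped eight-base word pooled with its reverse complement by the Universal PBM Analysis Suite.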

| Sequence | PBM E-score |
| --- | --- |
| CTTCGTAA | 0.223 |
| ATGATAAA | 0.0952 |
| AAGTCGTC | -0.0843 |
| CAACACAC | 0.301 |
| CTGCATTC | 0.0843 |
| AAAAAGGG | 0.0646 |
| AGGGAAAA | 0.0226 |
| AGAGGGTC | -0.157 |
| AACTGGGA | -0.00456 |
| GCTACCCA | -0.264 |
| GACAGAGC | -0.123 |
| AGTGTAGA | 0.151 |
| CGCAAGCG | -0.0916 |
| GGTCGGAC | -0.231 |
| TAGATCTA | 0.114 |
| ATATCAAA | -0.116 |
| AGCCGTTC | -0.271 |
| TACCCCTA | -0.0975 |
| ATCGCTAA | -0.0133 |
| CGAGGGCA | -0.117 |
| GCACACGA | 0.111 |
| ATACAAAG | 0.246 |
| CACCTGTA | 0.19 |
| GGAGGCAC | 0.474 |
| ACTTACCG | 0.133 |

| Sequence | PBM E-score |
| --- | --- |
| AATCATTC | 0.0809 |
| ATCGGTGC | 0.111 |
| AACTCGCC | -0.0661 |
| ACTAGACC | -0.112 |
| ACACAACG | 0.275 |
| AAGGCATA | 0.321 |
| AAGGCAGT | -0.0323 |
| GTGGGTCA | -0.172 |
| AAGCCGTA | -0.0365 |
| CTGCTAAG | -0.191 |
| AGACCGAA | -0.103 |
| GAATAGAA | 0.0182 |
| ACGTACGG | -0.163 |
| GATATCGC | 0.0283 |
| ACGCATGG | -0.0183 |
| AATCAGCT | 0.0802 |
| CGTGACGC | -0.00805 |
| CAAACCCC | -0.0949 |
| AACAGCGT | 0.0789 |
| CTGAGGCC | -0.214 |
| TGCTAGAA | 0.0762 |
| GTCTCCTA | -0.102 |
| GATCGGAA | -0.105 |
| ATTAACTG | 0.12 |
| GATAATGC | 0.0501 |

| Sequence | PBM E-score |
| --- | --- |
| ACAAAGAA | 0.23 |
| GAATAAGC | -0.215 |
| AGCCTTGA | 0.0646 |
| ATCGGTAA | -0.122 |
| AGGCACAG | 0.491 |
| CAGACACA | 0.0491 |
| AGTTGCTA | 0.149 |
| CTAGGGTC | -0.0138 |
| CACGGGCG | -0.101 |
| TCACTCGA | -0.158 |
| CGAGGCAA | 0.318 |
| CGAATAAA | -0.101 |
| TATGCGGA | -0.205 |
| ACGGATTC | 0.079 |
| AGCTCGGA | -0.208 |
| CAGGGACA | 0.0375 |
| GTATTTCA | 0.211 |
| CGCACGCA | -0.03 |
| ACAGACAA | 0.17 |
| CCTACTTA | 0.141 |
| GCTGGCCA | -0.178 |
| GAGCTCAC | -0.221 |
| CAATGTGA | 0.154 |
| ATCTACAG | 0.0501 |
| AGACGGGC | -0.136 |

| Sequence | PBM E-score |
| --- | --- |
| AAGTCTCT | -0.138 |
| CGCTGGGA | -0.211 |
| AAATATCG | 0.0559 |
| ACCATCCT | 0.0451 |
| TCTGTAAA | 0.231 |
| ACCAAGGT | -0.00664 |
| CACCCCAC | -0.163 |
| TAGGAAGA | -0.115 |
| CGTTGTTA | 0.187 |
| GAGGCGCC | -0.301 |
| CAACTACG | 0.118 |
| CGAGTACG | -0.0642 |
| AGTGTTGG | -0.122 |
| ATTTAGGG | -0.121 |
| AGAATAGA | -0.0292 |
| ACCAGCAT | -0.0925 |
| ACGCATTA | 0.159 |
| AGGATACT | -0.12 |
| CGGATGTC | -0.29 |
| ACGGAAGT | -0.22 |
| AACGTTCT | 0.0512 |
| ATGCCATA | -0.00348 |
| AGAGGGCT | -0.181 |
| CCGTCACC | -0.329 |
| ACATCAGG | 0.161 |

| Sequence | PBM E-score |
| --- | --- |
| GATCGGCA | -0.285 |
| CACTATCC | -0.329 |
| CCGATGGC | -0.197 |
| AAAAAAGC | 0.13 |
| AATGGTCA | -0.111 |
| GCTGAATA | 0.141 |
| CGCGACCC | -0.124 |
| TGCTAAAA | 0.0711 |
| CAATTCTG | 0.0205 |
| TCGACAGA | -0.108 |
| ACTTGCAA | 0.0581 |
| AAGGTAAC | 0.339 |
| TGGGCACA | 0.356 |
| ATGGGCAA | 0.121 |
| GTGTGAAC | 0.153 |
| AACCCTGT | 0.0849 |
| ATTGTTTG | 0.0654 |
| TCAGTTCA | -0.0694 |
| GGGAGAAC | -0.2 |
| TAGATCGA | -0.105 |
| AGCCCTTG | -0.0922 |
| GATTGCTA | -0.115 |
| CTTCTAGC | -0.101 |
| CATGGAAC | -0.0907 |
| GGATGAAA | -0.138 |

| Sequence | PBM E-score |
| --- | --- |
| CTCAAGAA | -0.0846 |
| CCACTGCC | -0.207 |
| AGAAGTGA | -0.0786 |
| ATCTTAGC | -0.0857 |
| AACACCAT | 0.122 |
| ACAAAAAT | 0.094 |
| CCGAAGGC | 0.275 |
| GATAGCGC | 0.0929 |
| AGATGGCC | -0.179 |
| ACTACTCG | 0.0849 |
| CGGCGTAC | 0.0545 |
| ATAACGCG | 0.199 |
| AACGCAAA | 0.0196 |
| GCATTAAA | 0.264 |
| TCTTCTAA | -0.0123 |
| ACGCAAGC | 0.0762 |
| AGAACCAT | 0.0806 |
| TAATTTAA | 0.175 |
| GATCTGCA | -0.113 |
| CATAGTCC | -0.0494 |
| ACGCCGCT | -0.0984 |
| CACCGTGA | -0.252 |
| ACCCGCAG | -0.189 |
| AAACCTAC | 0.127 |
| AACATATT | 0.197 |

| Sequence | PBM E-score |
| --- | --- |
| GGTCATTA | -0.162 |
| ATGATCAC | -0.0679 |
| AGAGTACC | 0.043 |
| ACTAAGGG | -0.193 |
| AAGCCGCC | -0.147 |
| AGCAGTTA | -0.052 |
| AATACCTC | 0.132 |
| CTTCTCTA | -0.0751 |
| TTATTGAA | 0.125 |
| CGGTGGCA | -0.354 |
| AGATGTGC | -0.0176 |
| AAAACCAT | -0.116 |
| CGACCTTA | -0.165 |
| AAGTTCTA | -0.111 |
| AATAGGTA | 0.38 |
| CCGCCTCC | -0.222 |
| AGCACCAG | -0.0574 |
| GCACCACA | -0.0381 |
| TAACGAGA | 0.123 |
| CATTGAAA | 0.169 |
| CCCATGGA | -0.187 |
| ATACATGA | 0.363 |
